# Test results: PubChem BioAssay AID488969 (Vanderbilt High Throughput Screening Facility, 2010)
# Over roughly 110,000 compounds, “z-score” has its median near -0.1; the highest 2% begin near 2. Some of the results follow. The source made the active and inactive calls.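 Rule for the calls: active = z-score in the third read window above 3 or below -3; inactive = the rest.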
# Biological target: Metabotropic glutamate receptor 8 (Rattus norvegicus) (UniProt P70579)
# Test: rat mGluR8 modulators via GIRK flux, primary screen, cell-based, thallium flux, HTS (AID 488969)
# Conditions: HEK293 rat mGluR8, GIRK (G protein-gated inwardly rectifying potassium channel) thallium flux, FluoZin2; at 10 µM; stronger effect = higher value; submaximal glutamate (EC20) added with thallium
# Chain of UniProt P70579 (P70579 whole entry, looked up): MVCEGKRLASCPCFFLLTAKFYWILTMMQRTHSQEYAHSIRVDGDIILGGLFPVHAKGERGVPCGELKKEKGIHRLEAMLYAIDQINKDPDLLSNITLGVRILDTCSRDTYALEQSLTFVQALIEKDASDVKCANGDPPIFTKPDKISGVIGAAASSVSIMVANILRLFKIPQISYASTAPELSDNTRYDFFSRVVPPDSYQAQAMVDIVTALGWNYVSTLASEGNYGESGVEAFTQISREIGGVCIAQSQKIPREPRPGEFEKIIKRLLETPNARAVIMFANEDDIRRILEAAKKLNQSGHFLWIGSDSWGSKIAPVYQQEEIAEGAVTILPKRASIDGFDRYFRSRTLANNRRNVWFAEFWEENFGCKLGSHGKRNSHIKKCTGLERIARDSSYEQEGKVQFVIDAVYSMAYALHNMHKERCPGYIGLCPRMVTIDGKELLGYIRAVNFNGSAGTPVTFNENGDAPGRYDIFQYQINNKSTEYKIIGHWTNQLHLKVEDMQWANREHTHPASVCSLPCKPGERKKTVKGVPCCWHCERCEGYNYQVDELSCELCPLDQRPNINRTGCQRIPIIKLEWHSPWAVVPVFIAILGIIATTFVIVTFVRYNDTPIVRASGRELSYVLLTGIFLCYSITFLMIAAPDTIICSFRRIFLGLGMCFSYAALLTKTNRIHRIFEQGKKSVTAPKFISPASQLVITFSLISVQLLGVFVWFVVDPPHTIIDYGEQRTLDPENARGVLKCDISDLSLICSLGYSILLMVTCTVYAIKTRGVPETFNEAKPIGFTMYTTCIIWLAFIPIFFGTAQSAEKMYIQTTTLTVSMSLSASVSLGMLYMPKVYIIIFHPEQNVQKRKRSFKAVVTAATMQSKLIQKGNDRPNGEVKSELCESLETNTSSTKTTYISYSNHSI
row,SMILES,z-score
1,Cc1ccc(S(=O)(=O)N2CCC(C(=O)N3CCC[C@H]3C(=O)NCc3ccccc3)CC2)cc1,-0.265
2,CCOc1ccc(NS(=O)(=O)c2ccc(OC)c(C)c2)cc1,0.961
3,COc1cc(OC)c(C(=O)Nc2ccc(N(C)C)cc2)cc1OC,-0.495
4,CC1(C)Cc2c(cnn2-c2ccccc2)-c2c1c1ccccc1n2CC(O)CCl (centres undefined),-0.108
5,CCn1c(COc2ccc(=O)n(-c3ccccc3)n2)nnc1SCc1ccccc1C,-0.428
6,CCC(Sc1nc2cc3c(cc2c(=O)n1Cc1ccco1)OCO3)C(=O)Nc1ccccc1OC (centres undefined),-1.31
7,CCc1ccc(C(=O)NCc2ccc(Cl)cc2Cl)cc1,-0.761
8,O=C(NC1CCCCC1)c1ccc(Cn2cc(Cl)cn2)cc1,0.136
9,O=C(Nc1ccc2c(c1)OCCO2)c1ccc(Cl)c([N+](=O)[O-])c1,-0.228
10,O=S(=O)(Nc1cccc2ccccc12)N1CCCC1,-0.224
11,COc1ccccc1N1CCN(c2nc(N)c(C#N)c(CC#N)c2C#N)CC1,0.568
12,COc1ccc(CNc2nc3c(c(=O)[nH]c(=O)n3C)n2Cc2ccccc2C)cc1,-0.359
13,O=C(Nc1ccc2c(c1)CCC2)C1CCCN(c2ncccn2)C1 (centres undefined),1.78
14,CCOC(=O)C1=C(C)N=C2SC(C(=O)OC)=CC(=O)N2C1c1cc(OC)c(OC)c(OC)c1 (centres undefined),-0.014
15,Cc1nc2c(ccc3c2ccc2nc(C)sc23)s1,1.17
16,CN(C)c1ccc(/C=C/C(=O)c2ccc3c(c2)OCCO3)cc1[N+](=O)[O-],-0.26
17,Cc1cc(Cl)ccc1Oc1ncnc2oc(-c3ccccc3)cc12,0.0445
18,Cc1nnc(NC(=O)C2CCN(c3nnnn3-c3ccccc3)CC2)s1,-0.0201
19,Oc1ccc2ccccc2c1/C=N/c1nccs1,0.277
20,COc1ccc(C(=S)N2CCCC2)cc1OC,-0.422
21,O=C(CCCSc1nnnn1-c1ccccc1)c1ccc(F)cc1,-0.258
22,O=c1c2c3c(sc2nc2n1CCCCC2)CCCCC3,active: 8.38

row,SMILES,z-score
1,C=CCN(CC=C)S(=O)(=O)c1ccc(NC(=S)NC(=O)Cc2ccc(OC)cc2)cc1,-0.106
2,COc1ccc(OC)c(S(=O)(=O)Nc2ccccc2SC)c1,1.19
3,Cc1cc(C)c2c(c1)NC(c1cc3c(cc1Br)OCO3)C1CC=CC21 (centres undefined),1.04
4,C=CCn1c(SCc2cc(=O)n3ccsc3n2)nnc1C1CCCCC1,-0.372
5,CC(CC(=O)NCc1cccnc1)c1ccccc1 (centres undefined),1.06
6,Cc1cc(C(F)F)n2ncc(C(=O)NCCc3ccccc3Cl)c2n1,-0.487
7,C/C(=N\OCC(=O)Nc1cc(C)cc(C)c1)c1ccc2c(c1)OCCO2,0.235
8,Cc1c(Cl)cccc1NC(=O)CNc1ccccc1F,-0.398
9,O=C(C(Sc1ccccc1)c1ccccc1)N1CCOCC1 (centres undefined),-0.0319
10,Cc1ccc2c(c1)-c1c(ssc1=S)C(C)(C)N2C(=O)CSC1=NCCS1,0.0366
11,Cn1c(=O)oc2cc(S(=O)(=O)N3CCC4(CC3)OCCO4)ccc21,0.716
12,COc1ccc(C(=O)N2c3ccc(F)cc3CCC2C)cc1OC (centres undefined),-0.19
13,CCOC(=O)C1=C(C)N=C2SC(C(=O)OC)=CC(=O)N2C1c1ccc(F)cc1 (centres undefined),-0.218
14,CC(CSc1nc2ccccc2s1)Cn1c(N2CCCC2)nc2c1c(=O)[nH]c(=O)n2C (centres undefined),0.277
15,COC(=O)c1ccc(C)c(NC(=O)CN2C(=O)c3ccccc3S2(=O)=O)c1,-1.77
16,CCCn1c(NCc2cc(OC)ccc2OC)nc2ccccc21,0.137
17,COC(=O)c1ccccc1N(Cc1ccccc1)S(C)(=O)=O,-0.00256
18,O=C(COc1ccc2oc3c(c2c1)CCCC3)Nc1ccccn1,-0.0926
19,CCN(CC)S(=O)(=O)c1ccc2oc(C(=O)O)c(C)c2c1,-0.472
20,COc1ccc(C(C#N)N2CCCCC2)cc1OC (centres undefined),0.979
21,O=C1NC2(CCCCCC2)Cc2ccccc21,-0.131
22,COc1ccc(-c2ncccc2O)cc1,-0.124

row,SMILES,z-score
1,COC(=O)c1ccc(Oc2nc(NC(C)C)nc(N(C)C)n2)cc1,0.0146
2,COc1ccc(Br)c(/C=N/NC(=O)COc2ccc(-c3ccccc3)cc2)c1,-0.607
3,COc1cccc(/C=C(/C#N)c2ccc(F)cc2)c1OCc1cccc(C(=O)O)c1,-0.924
4,Cc1ccc(NC(=O)c2cc(N(C)C)ccc2[P+](=O)O)cc1,-0.24
5,CNC(=O)COc1ccccc1C(=O)Nc1ccc2c(c1)oc1ccccc12,-0.0282
6,COc1ccc(-c2cn3c(C)c(C(=O)NCc4ccc5c(c4)OCO5)sc3n2)cc1,-0.267
7,Cn1c(=O)c2c(nc(Sc3n[nH]c(N)n3)n2Cc2ccccc2Cl)n(C)c1=O,-0.703
8,COc1ccc(C2(C(=O)Nc3c(C)n(C)n(-c4ccccc4)c3=O)CCCC2)cc1OC,0.225
9,Cc1cc2oc(C(=O)Nc3ccc(S(=O)(=O)Nc4nccs4)cc3)cc(=O)c2cc1Cl,0.715
10,Cc1ccc2nc(-c3ccccc3Cl)cc(C(=O)Nc3cc(C)on3)c2c1,-0.595
11,Cc1ccccc1Cn1c(CN2CCc3ccccc3C2)nc2c1c(=O)n(C)c(=O)n2C,-0.399
12,C#CCN1C(=O)S/C(=C/c2cc(C)n(CC)c2C)C1=O,-0.153
13,COC(=O)C1=C(C)N(CCc2ccc(OC)c(OC)c2)C(=O)/C1=C\c1ccc(O)cc1,-0.422
14,COc1ccc(-n2c(SCC(=O)NCC3CCCO3)nc3n[nH]c(C)c3c2=N)cc1 (centres undefined),-0.605
15,CCOc1cc(/C=N/NC(=O)c2cccc([N+](=O)[O-])c2)ccc1OS(=O)(=O)c1ccccc1,-0.485
16,CCN1CCN(C(=O)/C=C\C(=O)O)CC1,-0.116
17,CC(C)c1nc(=S)c2ccccc2[nH]1,active: 13.7
18,COc1ccccc1CNCC(O)(c1ccc(Cl)cc1)c1ccc(Cl)cc1,0.23
19,CCOC(=O)c1ccc(NC(=O)CSc2nnc(CCc3ccc(C)o3)n2-c2ccccc2)cc1,-0.0939
20,CCOc1ccc(C(=O)COC(C)=O)cc1,-0.0449
21,COc1ccc(CSc2cccc3cccnc23)cc1[N+](=O)[O-],0.224
22,COc1ccccc1NC(=O)CSc1nc(C)c2c(c1C#N)CCCC2,0.0836

row,SMILES,z-score
1,CCC(=O)N1CCN(c2ccc(OC)cc2[N+](=O)[O-])CC1,0.0077
2,O=C(O)C1CC=CCC1C(=O)N1CCN(c2nc(-c3ccccc3)c3ccccc3n2)CC1 (centres undefined),0.326
3,Cc1nn(C)c(C)c1/C=N/NC(=O)CCn1nc(C)c([N+](=O)[O-])c1C,0.0312
4,Cn1cc(/C=C2/SC(=O)N(CC(=O)Nc3ccc4c(c3)OCO4)C2=O)c2ccccc21,-0.132
5,C=CCNC(=O)CN1CCC(n2c(C)nc3cc(C(F)(F)F)ccc32)CC1,-0.171
6,COc1ccc(NC(=O)C(c2ccc(C)cc2)N(C)C(=O)CNC(C)=O)cc1 (centres undefined),-0.116
7,Nc1cc(N)nc(SCc2ccccc2)n1,0.489
8,CCOC(=O)CN1CC23C=CC(O2)C(C(=O)NCc2ccc(C)cc2)C3C1=O (centres undefined),0.904
9,Cc1ccc(S(=O)(=O)NCC(=O)OC2CCOC2=O)cc1 (centres undefined),-0.196
10,CCn1c(SCC(=O)n2nc(C)cc2C)nnc1-c1ccc2c(c1)OCO2,-0.328
11,CCN(CC)S(=O)(=O)c1ccc(-c2nnc(SCc3nnc(-c4ccc(C)cc4)o3)n2CC)cc1,-0.562
12,CCCc1nc2c(C)ccc(C)c2c(N)c1CC,0.306
13,CCOC(=O)Cn1c(CN(C)Cc2ccccc2)nc2c1c(=O)n(C)c(=O)n2C,-0.113
14,CC(C)CCOc1cccc(OCC(=O)NC2CCS(=O)(=O)C2)c1 (centres undefined),-0.616
15,CC(=O)N1CCN(CC(O)COc2ccc(OCc3ccccc3)cc2)CC1 (centres undefined),0.0259
16,O=[N+]([O-])c1nn(-c2ccc(Cl)cc2)n(O)c1=NCc1cccnc1,-0.181
17,CC(C)(C)NC(=O)c1cc(C(C)(C)C)c(O)c(C(C)(C)C)c1,-1.49
18,Cc1ccc(CNC(=O)/C=C/c2ccc(S(=O)(=O)NCc3ccco3)cc2)cc1,-0.281
19,O=C(Nc1ccc(S(=O)(=O)N2CCCCC2)cc1)c1ccccc1Cl,-0.396
20,COc1ccc(C(C(=O)NC2CCCC2)N(Cc2ccccc2)C(=O)c2nsc(Cl)c2Cl)cc1 (centres undefined),-0.259
21,CC(=O)c1ccc(NC(=O)CSc2ccc(-c3ccc4c(c3)OCO4)nn2)cc1,-0.125
22,COc1ccc(NC(=O)C23CC4CC(C2)CC(n2cnc(Br)n2)(C4)C3)cc1Cl,-0.254

row,SMILES,z-score
1,Cc1ccc(S(=O)(=O)CC(=O)N(C)C)cc1,0.306
2,COc1ccc2nc(NC(=O)c3ccc4ncsc4c3)sc2c1,-0.549
3,Cc1ccc(NS(=O)(=O)c2cccc(C(=O)O)c2)c(C)c1,-0.193
4,CC(NC(=O)CSc1n[nH]c(=O)n1C1CC1)C12CC3CC(CC(C3)C1)C2 (centres undefined),0.17
5,NS(=O)(=O)c1ccc(Cc2ncc(C(F)(F)F)cc2Cl)s1,1.4
6,COc1ccc(-c2nc(N3CCC(C)CC3)[nH]c(=O)c2C#N)cc1,-0.122
7,COC(=O)/C=C1\S/C(=N/NC(=O)c2ccccc2)NC1=O,0.166
8,O=C(Nc1cc2c(cc1Br)OCCO2)c1cccs1,-0.145
9,O=Cc1c(C(=O)O)n(CC(=O)O)c2ccccc12,-0.3
10,CC1CCCCC12NC(=O)N(CC(=O)Nc1ccc(N3CCOCC3)cc1)C2=O (centres undefined),0.195
11,Clc1cccc(CN2CCCCCCC2)c1Cl,-0.146
12,NC(=O)c1cccc(S(=O)(=O)N2CC(c3ccccc3)CC2=O)c1 (centres undefined),-0.131
13,Cc1ccc(CSc2nnc(-c3ccncc3)n2C)cc1,-0.0782
14,COc1ccc(/C=N/n2c(SC)nnc2-c2ccccc2)c(OC)c1OC,-1.34
15,Cc1nc2ncnn2c(C)c1Cc1ccc(Cl)cc1,0.288
16,Cn1c(=O)n(C)c2cc([N+](=O)[O-])c(N3CCN(C(=O)c4ccccc4)CC3)cc21,-0.941
17,CC1Oc2ccccc2OC1(O)c1ccc2ccccc2n1 (centres undefined),-0.351
18,Cc1c(/C(O)=C2/C(=O)C(=O)N(CCN3CCOCC3)C2c2cccnc2)cnn1-c1ccccc1 (centres undefined),-0.0944
19,CN(C)c1ccnc(NCc2ccccc2)c1C#N,-0.278
20,COc1ccc(/C=C2/SC(=O)N(NS(=O)(=O)c3ccccc3)C2=S)cc1OC,0.0153
21,O=C(Nc1ccccc1-c1nnc(SCc2ccc(Cl)cc2)o1)c1ccccc1,-0.0734
